Reference: the supplement of paper PMC3334620
In all, about 33,000 sequences were measured (“E-score (-0.5 to 0.5)”: median about -0.041, highest 2% from about 0.37 on). The list shows a part of the results.

target: T1, Ecm22 (UniProt Q05958); assay: PBM E-score (8-mer binding enrichment) (E-score (-0.5 to 0.5)); higher = stronger / more preferred TF binding; most listed sequences are background and not binding sites; conditions: protein concentration: 200 nM; construct: GST-full length
T1 sequence: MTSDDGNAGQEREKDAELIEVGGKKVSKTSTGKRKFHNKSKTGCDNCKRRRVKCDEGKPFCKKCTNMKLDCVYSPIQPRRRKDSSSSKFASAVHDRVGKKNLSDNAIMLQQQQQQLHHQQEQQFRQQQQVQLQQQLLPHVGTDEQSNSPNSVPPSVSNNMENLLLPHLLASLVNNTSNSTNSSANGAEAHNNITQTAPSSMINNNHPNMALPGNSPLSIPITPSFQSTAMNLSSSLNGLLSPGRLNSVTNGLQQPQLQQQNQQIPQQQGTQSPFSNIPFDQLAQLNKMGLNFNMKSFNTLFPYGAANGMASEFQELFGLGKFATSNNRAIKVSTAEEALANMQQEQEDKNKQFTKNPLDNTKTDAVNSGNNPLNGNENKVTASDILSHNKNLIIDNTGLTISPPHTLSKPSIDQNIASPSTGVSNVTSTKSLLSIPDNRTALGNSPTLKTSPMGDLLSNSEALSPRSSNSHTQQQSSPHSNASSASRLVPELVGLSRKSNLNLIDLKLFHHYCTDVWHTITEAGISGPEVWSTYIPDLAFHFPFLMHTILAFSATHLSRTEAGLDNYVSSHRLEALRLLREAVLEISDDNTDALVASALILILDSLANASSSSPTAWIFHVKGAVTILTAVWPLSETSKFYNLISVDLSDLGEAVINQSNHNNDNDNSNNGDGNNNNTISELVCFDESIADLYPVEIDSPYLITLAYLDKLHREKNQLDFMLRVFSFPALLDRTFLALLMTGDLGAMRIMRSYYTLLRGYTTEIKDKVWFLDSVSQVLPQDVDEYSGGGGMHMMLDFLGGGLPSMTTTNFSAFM
Procedure, shortened: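 Using PURExpress in vitro transcription/translation, GST-tagged yeast transcription factors were made in full-length or DNA-binding-domain form. These were applied at about 100-200 nM to double-stranded universal all-10-mer Agilent arrays, and bound protein was detected with fluorescent anti-GST. Scans were normalised with masliner before the Universal PBM Analysis Suite assigned E-scores to ungapped eight-base words pooled with their reverse complements.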

| Sequence | PBM E-score |
| --- | --- |
| CTGGGAAA | -0.186 |
| GGAGAAAA | -0.112 |
| TCATCTAA | 0.0209 |
| AGATGACA | -0.206 |
| TATCCGGA | 0.11 |
| CCACAACG | 0.0279 |
| GCCGTAAA | 0.366 |
| ATTCTTTA | 0.0137 |
| GCCATGCA | -0.175 |
| CCGGGGCG | -0.103 |
| CAATCGTG | -0.215 |
| CATCCACG | -0.0554 |
| GGTCGAAC | 0.102 |
| GGTAGTAA | -0.0356 |
| AAGGTCGA | -0.0116 |
| GCGCGCTA | 0.122 |
| GTATCTCA | 0.017 |
| AGATTGCG | 0.0917 |
| CACCGTCA | -0.0843 |
| TAATTGAA | -0.239 |
| CCAGCGCC | -0.027 |
| AGACGAAA | 0.194 |
| GATCCCGC | 0.0461 |
| CGAGATCG | 0.254 |
| AATCCCAT | -0.218 |

| Sequence | PBM E-score |
| --- | --- |
| AAGATGCA | -0.11 |
| CCGAGTCC | 0.0498 |
| CGCGTCCA | 0.0786 |
| GGATACCC | -0.00516 |
| CGCCTTTC | 0.0685 |
| ATAAATGA | 0.0138 |
| CCGGTAGG | -0.192 |
| GCTTCTCA | -0.178 |
| CACTCGGC | 0.215 |
| AACTACTC | -0.09 |
| CCTCGGGA | 0.0836 |
| AGTCTTTC | -0.108 |
| ATGCACCA | -0.108 |
| AACTTTAC | 0.0789 |
| AAGCGAAT | 0.277 |
| CATAATAG | 0.15 |
| GTACCACA | 0.256 |
| CGGGCAAC | 0.0612 |
| AGCTTCAT | 0.0197 |
| CCATATCA | 0.0475 |
| CGACCCGC | 0.03 |
| GTTTTTTA | -0.014 |
| ACGCCTGG | -0.0525 |
| ACATTATC | 0.135 |
| CTAGGCAG | -0.158 |

| Sequence | PBM E-score |
| --- | --- |
| AATTCCTA | 0.0294 |
| CCACAACA | -0.209 |
| GAGTCACA | 0.0764 |
| ACATGGAA | -0.0701 |
| ACACCGGT | -0.0618 |
| CGACCAGC | 0.0769 |
| CGTTCCGA | 0.444 |
| ACCGGGAT | 0.0438 |
| AGTCATAC | 0.12 |
| ACCCTACG | -0.142 |
| GCACATCC | -0.102 |
| GTCGCAAA | 0.278 |
| GGGAGGCA | -0.188 |
| ATCCTCTC | -0.128 |
| AGGCTGTA | -0.15 |
| ACAAAGAT | -0.0464 |
| CGTACCCC | 0.453 |
| ACAATATA | 0.243 |
| CTCCAGTA | -0.0273 |
| CTATGCAA | -0.0583 |
| CGCTCCTC | 0.193 |
| ACTGCCAT | 0.0746 |
| TAACCAGA | 0.018 |
| ACGGTACC | 0.206 |
| ATGTACAA | -0.0165 |

| Sequence | PBM E-score |
| --- | --- |
| CCGAATAG | 0.0447 |
| CATCAGTC | -0.184 |
| ACCTAGGC | -0.309 |
| ACCCCAAC | -0.205 |
| ACGCAGTG | -0.00625 |
| ACGTGGAT | 0.133 |
| ATGCGAGC | 0.321 |
| CCACACTC | -0.00392 |
| ACTCTGCT | -0.207 |
| ACACTTTC | -0.0308 |
| GCACGTAC | 0.168 |
| ATACAAAA | 0.131 |
| ACAAAGAC | 0.0577 |
| CTCTAAGC | 0.00902 |
| GCTGTGTA | -0.127 |
| CATAGGGA | -0.272 |
| CCCCCTCA | -0.37 |
| ACTGTGTA | 0.137 |
| ATATTTTG | -0.0981 |
| AGTTACTC | 0.186 |
| ACGCTATA | 0.233 |
| ATATATAA | 0.194 |
| CCTTTTAG | -0.0518 |
| AAATTGAC | -0.124 |
| CCCGTATA | 0.471 |

| Sequence | PBM E-score |
| --- | --- |
| ATGTCTCA | -0.207 |
| TCCTACGA | 0.26 |
| TTCCCGAA | 0.17 |
| AAGCTCTC | -0.212 |
| AGTGGGGA | -0.227 |
| GAGCGCAA | -0.106 |
| TCGTATCA | 0.463 |
| GCGGGTTA | 0.166 |
| CGAGTCAC | 0.106 |
| CCGCGAGA | 0.00959 |
| AAATTATC | 0.178 |
| CGTTTGAC | 0.326 |
| AGATTGAC | -0.0446 |
| GTGTAGGA | -0.226 |
| GACGTAAC | -0.079 |
| ACAGGCGC | -0.11 |
| AGCAGAAG | -0.125 |
| GAAGGATA | -0.196 |
| CACGCGAA | 0.103 |
| CACAAGTG | -0.0896 |
| AATCTGCA | -0.242 |
| ATTTATGA | -0.0687 |
| ATCCTTTA | -0.159 |
| GTGTATGA | -0.014 |
| ATGATCGG | 0.0102 |

| Sequence | PBM E-score |
| --- | --- |
| ACGGTTAA | 0.132 |
| AGAGGTAT | 0.111 |
| GAACAAAA | 0.099 |
| CACTATCA | -0.0654 |
| TCTTTGAA | -0.0346 |
| CCCACATA | -0.0298 |
| ACCCAGGA | -0.107 |
| ATTTCTAG | -0.178 |
| AACCAAAA | -0.173 |
| CAGTTCAA | -0.138 |
| CGCTCCGC | 0.176 |
| CCAGCACA | -0.3 |
| GTAGTGAA | -0.16 |
| TAGGCTAA | -0.139 |
| GGGATTTA | -0.0568 |
| AAGCTGTG | -0.0491 |
| ATGAGCTA | -0.105 |
| GTTAAATA | 0.115 |
| ACCATCAT | -0.0474 |
| CAGCACGA | 0.0386 |
| GAACGGCA | 0.334 |
| GCCGCTAC | 0.0212 |
| AGTATGTG | -0.0336 |
| CACGTAAC | -0.149 |
| TGTGAGAA | -0.146 |

| Sequence | PBM E-score |
| --- | --- |
| GAGAGTCA | -0.193 |
| TCCACCCA | -0.217 |
| ACGGGATC | 0.289 |
| TAAGTCTA | -0.254 |
| ATCAGCTC | -0.0122 |
| ATGTAGTA | 0.0421 |
| GCACTGAA | -0.0899 |
| TGTTGAAA | 0.0108 |
| CTTTAGGA | -0.187 |
| CGGCCCCC | -0.203 |
| CTAACCCA | -0.294 |
| AACATTCC | -0.251 |
| CGATTCCA | -0.0291 |
| GGTTAACC | -0.0654 |
| AAGCGTCA | 0.0381 |
| GGCCGCCC | -0.299 |
| AACCTTTG | -0.225 |
| ATGAAACC | -0.143 |
| AGGTTACC | -0.0237 |
| CGAGGTTC | 0.214 |
| AATTGTGA | -0.00565 |
| CGGAGTTC | 0.132 |
| AGTCCCAA | -0.193 |
| AGTCTTAA | -0.235 |
| CCATAACA | -0.0704 |

| Sequence | PBM E-score |
| --- | --- |
| ATTTCTAA | -0.0773 |
| CCCAGAAC | -0.134 |
| AGCGCGAC | -0.0248 |
| GTTGAGTA | 0.023 |
| ACCGCTCG | 0.181 |
| CTAGCTAA | -0.00655 |
| ATTGGGTC | -0.0362 |
| AATCCTAC | -0.125 |
| AGTCCAGC | -0.0392 |
| CATCAAGC | -0.00126 |
| ATTCGGCA | 0.186 |
| AATCCCTC | -0.105 |
| AGCGCGCA | 0.14 |
| CGAGCTTC | 0.288 |
| AGAACCTA | -0.02 |
| ATGTCTCG | 0.246 |
| AAGTTGAA | -0.174 |
| CATTTGCA | 0.154 |
| CCATACTC | -0.115 |
| AGTTCAAG | 0.112 |
| ACCATCTA | -0.189 |
| GCCTATGA | -0.201 |
| GTCACGCA | 0.0134 |
| CACCACTC | -0.0634 |
| CAGCAAGC | -0.134 |

| Sequence | PBM E-score |
| --- | --- |
| ACTCACTC | -0.0529 |
| ACCACCGG | -0.0728 |
| AGCGGCAA | -0.158 |
| AATTGAAC | -0.0075 |
| GAGCCCCA | -0.107 |
| ACCCCTGG | -0.216 |
| CCATACAG | -0.0505 |
| ACTATAGA | -0.145 |
| GCCATAAA | -0.0403 |
| AATCCAAT | -0.116 |
| GGTAAACC | -0.101 |
| ACCTTACT | 0.15 |
| TAAGGCGA | 0.0658 |
| GATGGATA | -0.158 |
| AATGCGAA | 0.202 |
| AACAGAGT | 0.109 |
| GTACGTAA | 0.312 |
| GTTATAAC | -0.0243 |
| ATAACTCG | 0.213 |
